This passage reports inhibition results from PubChem BioAssay AID2073 (Sanford-Burnham Center for Chemical Genomics, 2009).

The structures appear in SMILES notation. This is one part of the list. The main result of the screen is listed elsewhere. These columns were measured beside it and carry no call.

In this assay the target is Voltage-dependent N-type calcium channel subunit alpha-1B (Homo sapiens) (UniProt Q00975). Briefly: disruptors of CaV2.2 binding to Mint1 – biochemical, HTRF (AID 2073). To be noted: HTRF protein-protein interaction, Mint1-CaV2.2; measured here: average of repeat tests; at 20 µM; stronger effect = higher value.
UniProt Q00975, sequence (Q00975 whole entry, looked up): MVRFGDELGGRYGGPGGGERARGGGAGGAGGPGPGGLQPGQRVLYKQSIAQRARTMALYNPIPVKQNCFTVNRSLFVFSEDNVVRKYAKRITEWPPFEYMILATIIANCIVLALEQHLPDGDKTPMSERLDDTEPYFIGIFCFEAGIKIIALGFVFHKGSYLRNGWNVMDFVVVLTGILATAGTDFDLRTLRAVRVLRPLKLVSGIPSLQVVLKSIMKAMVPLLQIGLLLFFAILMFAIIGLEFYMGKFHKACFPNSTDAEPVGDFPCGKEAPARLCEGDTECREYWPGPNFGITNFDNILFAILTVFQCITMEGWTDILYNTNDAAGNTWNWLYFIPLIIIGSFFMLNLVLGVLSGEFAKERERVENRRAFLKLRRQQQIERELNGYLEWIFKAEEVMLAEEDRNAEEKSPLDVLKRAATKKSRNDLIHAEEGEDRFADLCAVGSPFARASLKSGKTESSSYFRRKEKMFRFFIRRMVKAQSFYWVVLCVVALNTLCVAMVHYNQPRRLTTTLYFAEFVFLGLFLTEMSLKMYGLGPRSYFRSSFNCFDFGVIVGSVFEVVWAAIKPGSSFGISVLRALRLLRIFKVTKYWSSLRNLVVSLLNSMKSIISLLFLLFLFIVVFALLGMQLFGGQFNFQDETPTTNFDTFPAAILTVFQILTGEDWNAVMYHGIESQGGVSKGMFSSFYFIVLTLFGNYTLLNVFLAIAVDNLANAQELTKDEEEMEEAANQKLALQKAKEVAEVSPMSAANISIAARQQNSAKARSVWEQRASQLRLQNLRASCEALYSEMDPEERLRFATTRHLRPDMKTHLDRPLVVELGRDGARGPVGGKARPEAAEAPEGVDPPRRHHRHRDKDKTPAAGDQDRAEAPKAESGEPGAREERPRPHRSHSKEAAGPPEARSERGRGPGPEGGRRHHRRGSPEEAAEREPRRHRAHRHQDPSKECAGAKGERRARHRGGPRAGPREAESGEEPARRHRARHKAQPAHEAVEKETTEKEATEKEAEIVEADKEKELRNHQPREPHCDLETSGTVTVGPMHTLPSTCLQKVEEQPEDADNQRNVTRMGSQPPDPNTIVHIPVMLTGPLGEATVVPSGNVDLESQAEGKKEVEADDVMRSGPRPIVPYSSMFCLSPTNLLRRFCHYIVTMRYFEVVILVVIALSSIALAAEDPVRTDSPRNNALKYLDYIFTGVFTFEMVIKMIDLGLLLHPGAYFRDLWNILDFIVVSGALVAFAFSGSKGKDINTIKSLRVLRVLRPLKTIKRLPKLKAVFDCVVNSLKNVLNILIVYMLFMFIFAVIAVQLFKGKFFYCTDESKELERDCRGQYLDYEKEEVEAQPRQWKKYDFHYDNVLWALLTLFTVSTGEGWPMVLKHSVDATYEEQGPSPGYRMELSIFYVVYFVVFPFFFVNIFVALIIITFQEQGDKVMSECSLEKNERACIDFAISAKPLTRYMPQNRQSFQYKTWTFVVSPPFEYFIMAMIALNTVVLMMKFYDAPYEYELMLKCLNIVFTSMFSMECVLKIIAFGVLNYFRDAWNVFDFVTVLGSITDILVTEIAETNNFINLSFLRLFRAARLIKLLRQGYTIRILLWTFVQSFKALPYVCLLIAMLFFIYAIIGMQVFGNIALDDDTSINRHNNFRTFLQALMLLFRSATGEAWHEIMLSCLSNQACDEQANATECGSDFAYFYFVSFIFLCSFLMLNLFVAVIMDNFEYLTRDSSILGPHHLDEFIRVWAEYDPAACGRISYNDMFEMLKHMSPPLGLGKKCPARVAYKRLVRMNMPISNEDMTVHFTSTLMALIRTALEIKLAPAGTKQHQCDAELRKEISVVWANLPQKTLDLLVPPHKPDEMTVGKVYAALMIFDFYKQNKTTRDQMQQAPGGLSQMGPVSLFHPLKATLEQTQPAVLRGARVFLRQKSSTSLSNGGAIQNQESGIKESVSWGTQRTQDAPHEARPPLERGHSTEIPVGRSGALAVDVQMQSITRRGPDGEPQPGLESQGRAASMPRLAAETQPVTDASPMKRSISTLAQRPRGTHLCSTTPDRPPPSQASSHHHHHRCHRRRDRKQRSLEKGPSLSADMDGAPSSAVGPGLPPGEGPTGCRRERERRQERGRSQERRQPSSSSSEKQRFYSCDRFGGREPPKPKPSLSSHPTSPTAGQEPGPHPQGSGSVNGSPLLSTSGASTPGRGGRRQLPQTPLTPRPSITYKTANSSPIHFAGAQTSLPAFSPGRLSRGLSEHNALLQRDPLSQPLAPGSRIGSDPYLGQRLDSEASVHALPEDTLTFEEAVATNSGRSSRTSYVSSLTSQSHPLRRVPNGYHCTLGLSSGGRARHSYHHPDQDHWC
Regarding `CN(CCOC(=O)/C=C/c1ccco1)Cc1ccccc1`, the inhibition amounted to 62%. On to `O=C(Nc1ccncc1NC(=O)c1cccc([N+](=O)[O-])c1)c1cccc([N+](=O)[O-])c1`, for which the inhibition worked out at 50.4%. Then `Cc1cc(C)n(Cc2ccc(C(=O)N/N=C/c3ccc(-c4ccc([N+](=O)[O-])cc4)o3)o2)n1`, with 55%; and `C/C=C\C=C/C(=O)Nc1cccc(C2=NOC3(C2)C[C@@H](C(N)=O)N(C(=O)/C=C/C=C\C)C3)c1` (stereo partly drawn), with 76.9%; and `O=[N+]([O-])c1ccc(-c2c[nH]c(=S)[nH]2)cc1`, with 54.4%. Consider `Cc1c(O)cc2c(c1O)C(=O)CC(c1ccc(O)cc1)O2` (stereo not drawn), for which the inhibition was determined as 55.3%. With `Cc1ccccc1-c1cc(C(=O)Nc2sc(C(=O)OC(C)C)c(C)c2C#N)c2ccccc2n1`, the inhibition was determined as 47.8%. The result for `O=C(CCS(=O)(=O)c1ccccc1)Nc1ccc(-c2nc3ccccc3s2)cc1` reads 47.2%; that for `c1coc(-c2nnc(-c3ccco3)nn2)c1`, 63.9%; that for `CC(=O)Nc1ccc(NC(=O)c2ccc(NC(=O)c3ccccc3)cc2)cc1`, 48.3%. Then `CCOc1ccc(NC(=O)Cn2cncc2-c2ccc([N+](=O)[O-])cc2)cc1`, with 31.3%. The result for `Cc1ccc(/C=C2\SC(=S)N(CCC(=O)NNC(=O)c3cccc(O)c3)C2=O)cc1` reads 43.8%; that for `Cc1ccccc1N1C(=O)CC(Sc2nnc(-c3ccccc3)o2)C1=O` (stereo not drawn), 67.7%; that for `COc1ccc(/C=C2\SC(=S)N(CC(=O)NNC(=O)c3ccncc3)C2=O)cc1`, 43.4%.

On to `COC/C=C/C1=CC2=CC(=O)C(C)(OC(=O)c3cnc4ccccc4n3)C(=O)C2=CN1c1ccc(CO)cc1` (stereo not drawn), for which the inhibition amounted to 78.2%. In the case of `Cc1cccc(NC(=S)NCc2ccco2)n1`, the inhibition was 64.1%. The result for `Clc1nssc1=Nc1ccccc1` reads 74.4%. Then `N#CCC(=O)N/N=C/c1cn(Cc2ccc(Cl)c(Cl)c2)c2ccccc12`, with 61.2%. The result for `O=C(O)c1ccc(NS(=O)(=O)c2ccc3c(c2)C2C=CCC2C(c2ccccc2F)N3)cc1` (stereo not drawn) reads 40.4%; that for `Cc1cc(C)c2c(=O)n(CC(=O)N3CCC(Cc4ccccc4)CC3)sc2n1`, 78.4%. Consider `COc1ccc(OC)c(CCNC(=O)Cn2sc3nc(C)cc(C)c3c2=O)c1`, for which the inhibition was 87.3%. Then `COc1cccc2c1NC(C(=O)O)C1CC=CC21` (stereo not drawn), with 55%; and `O=C(Nc1ccc(S(=O)(=O)N2CCOCC2)cc1)c1ccc(=O)[nH]c1`, with 54.9%; and `N#Cc1c(C#N)c(O)c2ccccc2c1O`, with 63%.

In the case of `CCNC(=S)NC(=NCc1cccnc1)Nc1nc(C)cc(C)n1`, the inhibition came out at 79.8%.

Turning to `Cc1cc(C)c2c(=O)n(CC(=O)Nc3cccc(F)c3)sc2n1`, the inhibition was determined as 86.9%.

On to `COc1cc(/C=C2\SC(=O)N(c3cccc(Cl)c3)C2=O)cc([N+](=O)[O-])c1O`, for which the inhibition came to 88.2%. Take `COc1cccc(N=c2oc3ccc(OC)cc3cc2-c2nc3ccccc3[nH]2)c1`: the inhibition was determined as 50.4%.

One may read the inhibition as the share of the control response that was lost under treatment.
